Literature values in article PMC11006913.
Some of the results follow.

target: HOXD13 R306W (Homo sapiens) (UniProt P35453); settings: PBM; conditions not shown; double strand, one strand shown; scale: upbm affinity estimate (log intensity, higher = more binding, comparable within an allelic series)

Sequence	binding signal
ATGTATCG [8-mer ATGTATCG]	10.5
AATAACCC [8-mer AATAACCC]	10.6
ATAATAAA [8-mer ATAATAAA]	11.7
AGGTAGTA [8-mer AGGTAGTA]	10.4
ATAGTCAA [8-mer ATAGTCAA]	10.3
ATGTCTAA [8-mer ATGTCTAA]	10.4
ATATAAAC [8-mer ATATAAAC]	11.8
AGAACATA [8-mer AGAACATA]	10.4
AATTTATA [8-mer AATTTATA]	11.9
TCTATTAA [8-mer TCTATTAA]	11.5
ATAAAACA [8-mer ATAAAACA]	11.7
ATATTGGA [8-mer ATATTGGA]	10.6
GTAAAACA [8-mer GTAAAACA]	10.8
CATAAAAA [8-mer CATAAAAA]	11.6
AGTTTACG [8-mer AGTTTACG]	10.9
CACGTAAA [8-mer CACGTAAA]	10.8

target: HOXD13 S316C (Homo sapiens) (UniProt P35453); settings: PBM; conditions not shown; double strand, one strand shown; scale: upbm affinity estimate (log intensity, higher = more binding, comparable within an allelic series)

Sequence	binding signal
AGTAGTTA [8-mer AGTAGTTA]	11.1
AATACTAA [8-mer AATACTAA]	10.7
GATGGTTA [8-mer GATGGTTA]	10.7
GTCACTAA [8-mer GTCACTAA]	10.8
ATGTATCG [8-mer ATGTATCG]	10.7
AATAACCC [8-mer AATAACCC]	11.2
ATAATAAA [8-mer ATAATAAA]	12.3
AGGTAGTA [8-mer AGGTAGTA]	10.8
GGTAGTAA [8-mer GGTAGTAA]	11
ATAGTCAA [8-mer ATAGTCAA]	10.7
ATGTCTAA [8-mer ATGTCTAA]	10.6
AATTATAT [8-mer AATTATAT]	12.1
ATATAAAC [8-mer ATATAAAC]	12.1
AGAACATA [8-mer AGAACATA]	10.6
ACTAACAA [8-mer ACTAACAA]	10.8
AATTTATA [8-mer AATTTATA]	12.2
ATAAAACA [8-mer ATAAAACA]	12.2
ATATTGGA [8-mer ATATTGGA]	11
GTAAAACA [8-mer GTAAAACA]	11.3
AGTTTACG [8-mer AGTTTACG]	11.5
ACCTTTTA [8-mer ACCTTTTA]	11.1
ATCGTAAC [8-mer ATCGTAAC]	11.2
CACGTAAA [8-mer CACGTAAA]	11.5
CTTATAAA [8-mer CTTATAAA]	12.1
